# In PubChem BioAssay AID504832 (National Center for Advancing Translational Sciences (NCATS), 2011):
# Hit rate of the full screen: of about 310,000 compounds, about 18,000 (5.8%) were called active. This list was built around the results that the source calls inconclusive (neither active nor inactive); the mix of calls is not that of the screen. Calls come from the whole dose curve; as a rule, active = well fitted inhibition curve with a large enough effect; inconclusive = small, poorly fitted or top-dose-only effect, or another doubt; inactive = no such curve, though single readings can be large or run the other way. No potency is given beside an inconclusive call; the fits are too rough.
# Assay: Primary qHTS for delayed death inhibitors of the malarial parasite plastid, 48 hour incubation
# Conditions: P. falciparum luciferase growth in erythrocytes; series mostly up to 28.7 µM
# Outline: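 Cell-based growth assay: transgenic P. falciparum expressing firefly luciferase, cultured in red cells within RPMI 1640 containing 0.5% w/v Albumax, 24 mM bicarbonate and gentamycin. A drop in luciferase activity indicates inhibition.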
# Potency is the fitted concentration of half-maximal effect; tags give direction and shape of the fitted curve.
row,Structure (SMILES),Potency
1,O=C(Nc1cccnc1Cl)C1=NN(c2ccccc2)C(=O)CC1,"inconclusive [inhibitor, single point]"
2,Cc1ccc(NC(=O)/C(=C\c2cccc([N+](=O)[O-])c2)NC(=O)c2cccs2)cc1,"inconclusive [inhibitor, single point]"
3,COc1ccc2c(CC(=O)Nc3ccc(OC)c(S(=O)(=O)N4CCOCC4)c3)coc2c1,inactive
4,CCSc1ncc(/C=N/Nc2ccccc2)n1C,active: 5.22 µM
5,CC1CCC/C(=N\Nc2ccc(Cl)c(C(=O)O)c2)C1 (configuration not stated),inactive
6,O=C1c2ccccc2C(=O)c2c1cccc2N1CCN(Cc2ccccc2)CC1,"inconclusive [inhibitor, single point]"
7,O=C(Nc1ccccc1C(F)(F)F)c1cc(-c2ccccc2O)on1,active: 1.04 µM
8,CCn1nc(C)c(CNC(=O)c2cc(COc3ccccc3SC)on2)c1C,"inconclusive [inhibitor, single point]"
9,NNC(=O)c1cc(-c2ccc(N)cc2)nc2ccc(Br)cc12,"inconclusive [inhibitor, single point]"
10,CCCCn1c(N)c(N(CCOC)C(=O)c2cc(-c3ccc(C)cc3)nc3ccccc23)c(=O)[nH]c1=O,"inconclusive [inhibitor, partial curve]"
11,Cn1cc(CN2CCC(O)CC2)c(-c2ccc(Oc3ccccc3)cc2)n1,inactive
12,Cc1ccccc1OCC(=O)Nc1cc(Cl)ccc1Oc1ccccc1,"inconclusive [inhibitor, single point]"
13,Cc1cccc(NS(=O)(=O)c2ccc(C(=O)N3CCC3)cc2)c1C,inactive
14,O=C(Cc1cn(-c2ccccc2)nc1-c1ccccc1)N1CCCCC1,"inconclusive [inhibitor, single point]"
15,COc1ccc(C2CC(C(F)(F)F)n3nc(C(=O)NCc4c(C)nn(C)c4C)c(Cl)c3N2)cc1 (configuration not stated),"inconclusive [inhibitor, partial curve, poor fit]"
16,COc1ccc(/C(C)=N/NC(=O)CNC(=O)c2cccs2)cc1,inactive
17,COc1ccc(/C=C2/C(=O)ON=C2C)cc1Cl,inactive
18,C=CCc1cc(Cl)ccc1OCCOCCNC(C)(C)C,active: 13.1 µM
19,CN(C)C1(CNC(=O)C2CCN(S(=O)(=O)c3ccccc3C(F)(F)F)CC2)CCCCC1,"inconclusive [inhibitor, partial curve, poor fit]"
20,COc1cccc(-c2nc(CS(=O)(=O)CC(=O)NCc3ccc4c(c3)OCO4)c(C)o2)c1,inactive
21,CCN(CC)CCCN(C(=O)c1ccc(Br)cc1)c1nc(-c2ccc(OC)cc2)cs1,"inconclusive [inhibitor, partial curve, poor fit]"
22,Cc1ccc(S(=O)(=O)N2CCCC2c2cccnc2)cc1 (configuration not stated),"inconclusive [inhibitor, partial curve, poor fit]"
23,O=C(Cn1cnc2ccccc21)Nc1ccc(F)c(F)c1,inactive
24,COc1ccccc1NC(=O)CCc1nc2sc3c(c2c(=O)[nH]1)CCCC3,"inconclusive [inhibitor, partial curve]"

row,Structure (SMILES),Potency
1,Cc1nc(C(=O)N2CCc3c([nH]c4ccccc34)C2c2cc(F)ccc2F)cs1 (configuration not stated),active: 10.4 µM
2,N#C/C(=C\c1ccccc1)C(=O)OCC(=O)N1CCCC1,active: 9.28 µM
3,Cc1c(OC(C)C(=O)N2C[C@H]3C[C@@H](C2)c2cccc(=O)n2C3)ccc2c3c(c(=O)oc12)CCCC3 (some centres not stated),"inconclusive [inhibitor, partial curve]"
4,CCc1ccc(OCC(=O)Nc2cccc3c2CCCC3)cc1,inactive
5,COc1cccc(C(=O)Nc2ccc(Oc3cccc(C(F)(F)F)c3)nc2)c1,active: 9.28 µM
6,O=C(CCCn1c(=O)[nH]c2ccsc2c1=O)Nc1ccc(F)cc1,inactive
7,COC(=O)c1c(O)cc(C(C)(C)C)n(-c2ccccc2)c1=O,inactive
8,Cc1ccc(C(=O)CN2C(=O)NC3(CCc4ccccc43)C2=O)c(C)c1 (configuration not stated),"inconclusive [inhibitor, single point]"
9,CCN(CC)CCN(Cc1cc2cc3c(cc2[nH]c1=O)OCO3)C(=S)NCCCOC,inactive
10,CC(C(=O)NC(C)(C)C)N(Cc1cccs1)C(=O)CCN1CCc2ccccc21 (configuration not stated),"inconclusive [inhibitor, partial curve, poor fit]"
11,COc1ccc(/C=C(\NC(=O)c2ccc(C)cc2)C(=O)Nc2c(C)n(C)n(-c3ccccc3)c2=O)cc1,inactive
12,CSc1cccc(NC(=S)N(CCCN2CCCC2)Cc2cccn2Cc2ccc(Cl)cc2)c1,"inconclusive [inhibitor, partial curve]"
13,CCN(CC)S(=O)(=O)c1ccc(/C=C/C(=O)Nc2ccc(Br)cc2F)cc1,active: 11.7 µM
14,Cc1cccc(C(=S)N2CCOCC2)n1,inactive
15,CNC(=O)c1ccc(Nc2nnc(-c3ccc(O)cc3)c3ccccc23)cc1,"inconclusive [inhibitor, partial curve, poor fit]"
16,O=C(Nc1nccs1)c1cc(-c2ccncc2)nc2ccccc12,"inconclusive [inhibitor, single point]"
17,CSc1oc(-c2ccco2)nc1S(=O)(=O)c1ccc(F)cc1,inactive
18,CCN(CC)S(=O)(=O)c1cccc(C(=O)NC(C(=O)Nc2nnc(C)s2)C(C)C)c1 (configuration not stated),active: 11.7 µM
19,COc1cc(C(=O)N/N=C/c2cn(Cc3cccc(F)c3)c3ccccc23)ccc1O,inactive
20,c1ccc(SCCOCCN2CCOCC2)cc1,inactive
21,Cc1ccc(C)c(-n2nnnc2SCC(=O)NCCC2=CCCCC2)c1,"inconclusive [inhibitor, partial curve, poor fit]"
22,CN1C(=O)/C(=C/c2ccc(C(F)(F)F)cc2)Sc2ccc(C(=O)N3CCN(c4ccccn4)CC3)cc21,"inconclusive [inhibitor, full curve]"
23,O=S(=O)(Cc1cc(Cl)nc(-c2ccncc2)n1)c1ccccc1,"inconclusive [inhibitor, single point]"
